Source: PubChem BioAssay AID2675 (National Center for Advancing Translational Sciences (NCATS), 2010)
Among all 280,000 compounds or so, about 100 (0.036%) were called active. Inconclusive means that the source gave no clear call. Such entries were picked first, then a sample of the others. Calls come from the whole dose curve; as a rule, active = well fitted inhibition curve with a large enough effect in the signal ratio, with a control signal flat (not every such curve was filed as active); inconclusive = small, poorly fitted or top-dose-only effect, or effect the other way, or a change in a side signal; inactive = no such curve, though single readings can be large or run the other way; the % refers to the signal ratio. A potency beside an inconclusive call is a rough fit, not a confirmed value. “Side channel” marks fits to a control or component signal instead of the main read-out.
Potency is the fitted concentration of half-maximal effect; tags give direction and shape of the fitted curve or compound fluorescence and quenching.

These molecules were tested against Muscleblind-like protein 1 (Homo sapiens) (UniProt Q9NR56) (assay: qHTS Assay for Inhibitors of MBNL1-poly(CUG) RNA binding). Conditions: TR-FRET MBNL1-His/biotin-(CUG)12 binding, 665/545 ratio; series mostly up to 57.5 µM.
Chain of UniProt Q9NR56 (Q9NR56 whole entry, looked up): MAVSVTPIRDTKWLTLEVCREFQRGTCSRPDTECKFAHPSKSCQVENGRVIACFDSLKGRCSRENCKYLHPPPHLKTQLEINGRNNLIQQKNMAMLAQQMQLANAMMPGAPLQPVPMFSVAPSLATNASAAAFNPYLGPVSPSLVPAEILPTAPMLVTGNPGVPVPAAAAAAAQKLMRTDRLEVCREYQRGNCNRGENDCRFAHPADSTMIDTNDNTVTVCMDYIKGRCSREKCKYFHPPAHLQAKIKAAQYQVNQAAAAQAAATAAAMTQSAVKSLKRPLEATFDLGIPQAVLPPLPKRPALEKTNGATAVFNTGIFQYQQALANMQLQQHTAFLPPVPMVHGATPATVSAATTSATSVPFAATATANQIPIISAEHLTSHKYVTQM
How it was run: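 Ratiometric TR-FRET (665 over 545 nm, excitation 340 nm) tracks disruption of MBNL1-His/biotin-(CUG)12 complex after 60 min at room temperature, with compounds at 92 nM to 58 uM final.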
In the case of `O=[N+]([O-])c1ccc(NC(=S)N2CCN(c3ccc(F)cc3)CC2)cc1`, the Potency was “inactive”. With `O=[N+]([O-])c1ccccc1/C=N\Nc1nccs1` the Potency was inconclusive: 3.55 µM [quencher, side channel, partial curve]. In the case of `O=C(/C=C/c1ccccc1)NCCC1=CCCCC1`, the Potency was inconclusive: 0.126 µM [fluorescent, side channel, full curve, poor fit]. With `COc1ccccc1C(=O)NC(=O)OCCn1c(C)cnc1[N+](=O)[O-]` the Potency was inconclusive: 28.2 µM [quencher, side channel, single point]. `COC(=O)c1sc(-c2ccc(Cl)cc2)cc1NC(=O)CSCC(=O)O` was tested, and the Potency was inconclusive: 11.2 µM [quencher, side channel, partial curve]. In the case of `Cc1cc(-c2nc3ccccc3c(=O)o2)ccc1[N+](=O)[O-]`, the Potency was inconclusive: 7.94 µM [quencher, side channel, full curve, poor fit]. In the case of `COc1ccccc1N1CCN(C(=O)C2c3ccccc3Oc3ccccc32)CC1`, the Potency was “inactive”. `C(=N\Nc1ncnc2nc[nH]c12)/c1cccs1` was tested, and the Potency was inconclusive: 39.8 µM [quencher, side channel, single point]. For `CS(=O)(=O)c1nc(S(=O)(=O)c2ccc(Cl)cc2)c(N2CCC3(CC2)OCCO3)s1`, the Potency was inconclusive: 39.8 µM [fluorescent, side channel, single point]. With `COc1ccc(C2NC3=C(CCC3)C3(C#N)C4(N=C(N)C23C#N)OCCO4)cc1` (configuration not stated) the Potency was inconclusive: 28.2 µM [quencher, side channel, single point]. For `NS(=O)(=O)c1ccc(N=Nc2ccc(O)c3ncccc23)cc1`, the Potency was inconclusive: 15.8 µM [quencher, side channel, partial curve]. In the case of `Nc1cc(N)cc(C(=O)Nc2ccc3c(c2)C(=O)NC3=O)c1`, the Potency was inconclusive: 25.1 µM [quencher, side channel, partial curve]. `O=S1(=O)N=C(N=Nc2c(O)[nH]c3ccccc23)c2ccccc21` was tested, and the Potency was inconclusive: 39.8 µM [quencher, single point]. For `CCOC(=O)/C(C#N)=C/c1cn(CCC(=O)O)nc1-c1ccc(Br)cc1`, the Potency was inconclusive: 20 µM [quencher, side channel, single point]. For `O=C(CSc1ccc([N+](=O)[O-])cc1)Nc1cccc(S(=O)(=O)Nc2ccccc2F)c1`, the Potency was inconclusive: 28.2 µM [quencher, side channel, partial curve]. In the case of `NC(=O)CC[C@@H]1NC(=O)C(Cc2ccc(O)cc2)NC(=O)c2cc([N+](=O)[O-])cc(F)c2NCCC[C@@H](C(N)=O)NC1=O` (some centres not stated), the Potency was inconclusive: 17.8 µM [quencher, side channel, partial curve, poor fit]. In the case of `Cc1ccccc1C1C2=C(Nc3[nH]n(-c4ccccc4)c(=O)c31)c1ccccc1C2=O` (configuration not stated), the Potency was inconclusive: 25.1 µM [quencher, side channel, partial curve, poor fit]. With `NS(=O)(=O)c1ccc2c(c1)oc(=O)c1cc(S(N)(=O)=O)ccc12` the Potency was inconclusive: 12.6 µM [quencher, partial curve]. For `Cc1ccc(C)c(/C=C2\N=C(c3ccccc3F)OC2=O)c1`, the Potency was “inactive”. With `Cc1cc(C)nc(N/N=C/C2=C(N3CCOCC3)C(=C\c3ccc(Cl)cc3)/CC2)n1` the Potency was inconclusive: 0.316 µM [quencher, side channel, full curve]. For `O=C(Nc1ccc2c(c1)OCO2)Nc1ccc2c(c1)OCO2`, the Potency was “inactive”. For `COC(=O)c1cccc([N+](=O)[O-])c1CS(=O)(=O)c1ccc(C)cc1`, the Potency was inconclusive: 15.8 µM [quencher, side channel, single point]. `COCCCn1c(=N)c(C(=O)NC2CCCCC2)cc2c(=O)n3ccccc3nc21` was tested, and the Potency was inconclusive: 39.8 µM [quencher, single point]. In the case of `CN(C)S(=O)(=O)c1ccc(NC(=O)C2CC(=O)N(Cc3ccccc3)C2)cc1` (configuration not stated), the Potency was inconclusive: 63.1 µM [inhibitor, partial curve]. In the case of `O=C(NCc1cccc(C(F)(F)F)c1)c1cccc(Cl)c1Cl`, the Potency was inconclusive: 4.47 µM [quencher, side channel, single point]. With `O=C(CCNS(=O)(=O)c1cccc2nonc12)NCCc1ccc(Cl)cc1` the Potency was inconclusive: 10 µM [quencher, side channel, partial curve]. `Cc1ccc(-c2nc3cc(N)ccc3o2)cc1` was tested, and the Potency was inconclusive: 6.31 µM [quencher, side channel, single point]. For `COC(=O)Nc1ccc(C)c2nsnc12`, the Potency was inconclusive: 15.8 µM [quencher, side channel, partial curve]. For `Clc1cccc(Cl)c1CNC1CCCC1`, the Potency was “inactive”. For `Cc1cccc(NS(=O)(=O)c2cccc3nonc23)c1`, the Potency was inconclusive: 39.8 µM [quencher, single point]. In the case of `Clc1ccc(OCCCNCc2ccccc2)c2ccccc12`, the Potency was “inactive”. In the case of `CC(C)N1CC(C(=O)Nc2ccc(Cl)c([N+](=O)[O-])c2)CC1=O` (configuration not stated), the Potency was inconclusive: 17.8 µM [quencher, side channel, partial curve]. For `C#CCN(C#N)c1nc(NCC)nc(NC(C)C)n1`, the Potency was “inactive”. `CCOC(=O)c1c(NC(=O)c2cccnc2)sc(C(C)=O)c1C` was tested, and the Potency was inconclusive: 0.224 µM [fluorescent, side channel, full curve]. For `COc1ccc(-c2csc(NC(=O)CC(C)C)n2)cc1`, the Potency was inconclusive: 100 µM [inhibitor, single point]. `COc1ccc(CCC(=O)N2CCN(C3CCCCC3)CC2)cc1` was tested, and the Potency was “inactive”. With `CCCCN(C)CCNC(=O)c1cc2c(-c3ccccc3F)nn(C)c2s1` the Potency was “inactive”. In the case of `Fc1ccccc1CNc1nc(-c2cccnc2)nc2ccccc12`, the Potency was “inactive”. With `CCOC(=O)/C(C)=N/NC(=O)c1ccc([N+](=O)[O-])cc1` the Potency was inconclusive: 15.8 µM [quencher, side channel, partial curve]. For `O=C(c1ccc(-n2cncn2)c([N+](=O)[O-])c1)N1CCN(S(=O)(=O)c2ccc(Cl)cc2)CC1`, the Potency was inconclusive: 15.8 µM [quencher, side channel, partial curve]. In the case of `Cc1ccc(/C=N/NC(=O)c2nnn(-c3nonc3N)c2C)o1`, the Potency was inconclusive: 17.8 µM [quencher, side channel, partial curve]. With `Cc1cccn2c(=O)c3cc(C(=O)NCc4ccc(F)cc4)c(=N)n(CC4CCCO4)c3nc12` (configuration not stated) the Potency was inconclusive: 14.1 µM [quencher, side channel, partial curve]. With `CC(C)(C)S(=O)(=O)/C(C#N)=N/Nc1ccc(C#N)cc1` the Potency was inconclusive: 28.2 µM [quencher, side channel, single point]. With `Cc1occc1C(=O)N/N=C/c1ccc(Cl)c([N+](=O)[O-])c1` the Potency was “inactive”. `O=C1C(=O)N(CC2COc3ccccc3O2)c2ccccc21` (configuration not stated) was tested, and the Potency was inconclusive: 15.8 µM [quencher, side channel, partial curve]. For `O=C1OCc2cc(NS(=O)(=O)c3cccs3)ccc21`, the Potency was “inactive”. With `COc1ccc(Cl)cc1NC(=S)Nc1ccccc1C` the Potency was “inactive”. For `CCc1cc2c(SCC(=O)c3ccccc3)ncnc2s1`, the Potency was inconclusive: 31.6 µM [activator, single point]. For `O=C(NCC1CCCO1)c1nn2c(C(F)(F)F)cc(-c3cc(Br)cs3)nc2c1Br` (configuration not stated), the Potency was “inactive”. `COc1ccc(/C=C2\SC(=S)N(CCCC(=O)Nc3ccc(O)cc3)C2=O)cc1` was tested, and the Potency was inconclusive: 14.1 µM [quencher, side channel, partial curve]. With `COc1ccc(-c2cnnc(N/N=C/c3ccc(O)c(OC)c3)n2)cc1` the Potency was inconclusive: 3.16 µM [quencher, side channel, full curve, poor fit]. With `CCNc1nn2ccccc2c1/C=C(\C#N)C(=O)OCC` the Potency was inconclusive: 15.8 µM [quencher, partial curve]. For `CCOC(=O)NC(NCc1ccccc1)(C(F)(F)F)C(F)(F)F`, the Potency was inconclusive: 0.355 µM [fluorescent, side channel, partial curve]. For `CCOn1c(=O)c[n+]([O-])c2ccccc21`, the Potency was inconclusive: 17.8 µM [quencher, partial curve]. With `c1ccc2[nH]c3cc4ncnc4cc3nc2c1` the Potency was inconclusive: 3.55 µM [quencher, side channel, partial curve]. With `COc1ccccc1N1CCN(CC(=O)Nc2ccc(-n3cnnn3)cc2)CC1` the Potency was “inactive”. For `O=C(NCCCN1CCOCC1)c1ccccc1N1C(=O)[C@@H]2Cc3c([nH]c4ccccc34)C(c3cccc(Cl)c3)N2C1=O` (some centres not stated), the Potency was “inactive”. `COCCN(C(=O)COC(=O)/C=C/c1ccc(C)o1)c1c(N)n(Cc2ccccc2)c(=O)[nH]c1=O` was tested, and the Potency was inconclusive: 25.1 µM [quencher, side channel, single point]. For `COc1ccc([N+](=O)[O-])cc1N(CC(=O)NC1CCCCC1)S(C)(=O)=O`, the Potency was inconclusive: 15.8 µM [quencher, side channel, partial curve]. `COCCNC(=O)/C(C#N)=C/c1c(N2CCN(c3ccccc3)CC2)nc2ccccn2c1=O` was tested, and the Potency was inconclusive: 10 µM [quencher, side channel, partial curve]. With `COCCN=C1NN=C(c2ccc(C)c([N+](=O)[O-])c2)CS1` the Potency was inconclusive: 17.8 µM [quencher, side channel, partial curve]. With `Cc1c([N+](=O)[O-])c([N+](=O)[O-])nn1CC(=O)NCc1cccnc1` the Potency was inconclusive: 15.8 µM [quencher, side channel, partial curve].
